{"source": "the supplement of paper PMC8728848", "experiment_in_all_cases": "glycan array binding signal (z-score within array); higher = stronger binding", "conditions_in_all_cases": "glycan notation: IUPAC condensed, linker removed", "key": {"[1]": {"molecular_target": "Fuc(a1-2)Gal(b1-4)GlcNAc(b1-3)Gal(b1-4)GlcNAc(b1-2)Man(a1-3)[Fuc(a1-2)Gal(b1-4)GlcNAc(b1-3)Gal(b1-4)GlcNAc(b1-2)Man(a1-6)]Man(b1-4)GlcNAc(b1-4)GlcNAc", "procedure,_shortened": "(§1)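 Columns mapping to the same glycan were averaged after glycan names were converted to IUPAC-condensed notation. The data come from 3228 arrays in the Consortium for Functional Glycomics database, limited to those with an available protein sequence. Binding is reported as a within-array Z-score averaged across arrays of one protein sequence and across linkers.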"}, "[2]": {"molecular_target": "Fuc(a1-2)Gal(b1-4)GlcNAc(b1-3)Gal(b1-4)GlcNAc(b1-3)Gal(b1-4)GlcNAc", "procedure,_shortened": "as §1"}, "[3]": {"molecular_target": "Fuc(a1-2)Gal(b1-4)GlcNAc(b1-3)GalNAc", "procedure,_shortened": "as §1"}, "[4]": {"molecular_target": "Fuc(a1-2)Gal(b1-4)GlcNAc(b1-3)[Fuc(a1-2)Gal(b1-4)GlcNAc(b1-6)]GalNAc", "procedure,_shortened": "as §1"}, "[5]": {"molecular_target": "Fuc(a1-2)Gal(b1-4)GlcNAc(b1-3)[Fuc(a1-3)[Gal(b1-4)]GlcNAc(b1-6)]Gal(b1-4)Glc", "procedure,_shortened": "as §1"}, "[6]": {"molecular_target": "Fuc(a1-2)Gal(b1-4)GlcNAc(b1-6)GalNAc", "procedure,_shortened": "as §1"}, "[7]": {"molecular_target": "Fuc(a1-2)Gal(b1-4)GlcNAc6S", "procedure,_shortened": "as §1"}, "[8]": {"molecular_target": "Fuc(a1-2)Gal(b1-4)[Fuc(a1-3)]GlcNAc", "procedure,_shortened": "as §1"}, "[9]": {"molecular_target": "Fuc(a1-2)Gal(b1-4)[Fuc(a1-3)]GlcNAc(b1-2)Man(a1-3)[Fuc(a1-2)Gal(b1-4)[Fuc(a1-3)]GlcNAc(b1-2)Man(a1-6)]Man(b1-4)GlcNAc(b1-4)[Fuc(a1-6)]GlcNAc", "procedure,_shortened": "as §1"}, "[10]": {"molecular_target": "Fuc(a1-2)Gal(b1-4)[Fuc(a1-3)]GlcNAc(b1-2)[Fuc(a1-2)Gal(b1-4)[Fuc(a1-3)]GlcNAc(b1-4)]Man(a1-3)[Fuc(a1-2)Gal(b1-4)[Fuc(a1-3)]GlcNAc(b1-2)Man(a1-6)]Man(b1-4)GlcNAc(b1-4)GlcNAc", "procedure,_shortened": "as §1"}, "[11]": {"molecular_target": "Fuc(a1-2)Gal(b1-4)[Fuc(a1-3)]GlcNAc(b1-3)Gal(b1-4)[Fuc(a1-3)]GlcNAc", "procedure,_shortened": "as §1"}, "[12]": {"molecular_target": "Fuc(a1-2)Gal(b1-4)[Fuc(a1-3)]GlcNAc(b1-3)Gal(b1-4)[Fuc(a1-3)]GlcNAc(b1-3)Gal(b1-4)[Fuc(a1-3)]GlcNAc", "procedure,_shortened": "as §1"}, "[13]": {"molecular_target": "Fuc(a1-2)Gal(b1-4)[Fuc(a1-3)]GlcNAc(b1-3)GalNAc", "procedure,_shortened": "as §1"}, "[14]": {"molecular_target": "Fuc(a1-2)Gal(b1-4)[Fuc(a1-3)]GlcNAc(b1-3)[Neu5Ac(a2-6)Gal(b1-4)GlcNAc(b1-6)]Gal(b1-4)Glc", "procedure,_shortened": "as §1"}, "[15]": {"molecular_target": "Fuc(a1-2)Gal3S(b1-4)GlcNAc", "procedure,_shortened": "as §1"}, "[16]": {"molecular_target": "Fuc(a1-2)Gal6S(b1-3)GlcNAc", "procedure,_shortened": "as §1"}, "[17]": {"molecular_target": "Fuc(a1-2)Gal6S(b1-3)GlcNAc6S", "procedure,_shortened": "as §1"}, "Fuc(a1-2)Gal6S(b1-4)Glc": {"molecular_target": "Fuc(a1-2)Gal6S(b1-4)Glc", "procedure,_shortened": "as §1"}, "[18]": {"molecular_target": "Fuc(a1-2)Gal6S(b1-4)Glc6S", "procedure,_shortened": "as §1"}, "Fuc(a1-2)[Gal(a1-3)]Gal": {"molecular_target": "Fuc(a1-2)[Gal(a1-3)]Gal", "procedure,_shortened": "as §1"}, "[19]": {"molecular_target": "Fuc(a1-2)[Gal(a1-3)]Gal(b1-3)GalNAc", "procedure,_shortened": "as §1"}, "[20]": {"molecular_target": "Fuc(a1-2)[Gal(a1-3)]Gal(b1-3)GalNAc(b1-3)Gal(a1-4)Gal(b1-4)Glc", "procedure,_shortened": "as §1"}, "[21]": {"molecular_target": "Fuc(a1-2)[Gal(a1-3)]Gal(b1-3)GlcNAc", "procedure,_shortened": "as §1"}, "[22]": {"molecular_target": "Fuc(a1-2)[Gal(a1-3)]Gal(b1-3)GlcNAc(b1-2)Man(a1-3)[Fuc(a1-2)[Gal(a1-3)]Gal(b1-3)GlcNAc(b1-2)Man(a1-6)]Man(b1-4)GlcNAc(b1-4)GlcNAc", "procedure,_shortened": "as §1"}, "[23]": {"molecular_target": "Fuc(a1-2)[Gal(a1-3)]Gal(b1-3)GlcNAc(b1-2)Man(a1-3)[Fuc(a1-2)[Gal(a1-3)]Gal(b1-3)GlcNAc(b1-2)Man(a1-6)]Man(b1-4)GlcNAc(b1-4)[Fuc(a1-6)]GlcNAc", "procedure,_shortened": "as §1"}, "[24]": {"molecular_target": "Fuc(a1-2)[Gal(a1-3)]Gal(b1-3)GlcNAc(b1-3)GalNAc", "procedure,_shortened": "as §1"}, "[25]": {"molecular_target": "Fuc(a1-2)[Gal(a1-3)]Gal(b1-3)GlcNAc(b1-6)GalNAc", "procedure,_shortened": "as §1"}, "[26]": {"molecular_target": "Fuc(a1-2)[Gal(a1-3)]Gal(b1-4)Glc", "procedure,_shortened": "as §1"}, "[27]": {"molecular_target": "Fuc(a1-2)[Gal(a1-3)]Gal(b1-4)GlcNAc", "procedure,_shortened": "as §1"}, "[28]": {"molecular_target": "Fuc(a1-2)[Gal(a1-3)]Gal(b1-4)GlcNAc(b1-2)Man", "procedure,_shortened": "as §1"}}, "note": "The list shows a part of the results.", "data": [{"binder": "SSR2 (Sclerotium rolfsii) (protein) MVYKITVRVYQTNPDAFFHPVEKTVWKYANGGTWSITDDQHVLTMGGSGTSGTLRFHADNGESFTATFGVHNYKRWCDIVTNLAADETGMVINQQYYSQKNREEARERQLSNYQVKNAKGRNFQIVYTEAEGNDLHANLIIG", "values": [{"measurement": "glycan array binding signal (z-score)", "setting": "[1]", "result": -0.273}, {"measurement": "glycan array binding signal (z-score)", "setting": "[2]", "result": -0.277}, {"measurement": "glycan array binding signal (z-score)", "setting": "[3]", "result": -0.293}, {"measurement": "glycan array binding signal (z-score)", "setting": "[4]", "result": -0.282}, {"measurement": "glycan array binding signal (z-score)", "setting": "[5]", "result": -0.286}, {"measurement": "glycan array binding signal (z-score)", "setting": "[6]", "result": -0.288}, {"measurement": "glycan array binding signal (z-score)", "setting": "[7]", "result": -0.271}, {"measurement": "glycan array binding signal (z-score)", "setting": "[8]", "result": -0.282}, {"measurement": "glycan array binding signal (z-score)", "setting": "[9]", "result": -0.278}, {"measurement": "glycan array binding signal (z-score)", "setting": "[10]", "result": -0.242}, {"measurement": "glycan array binding signal (z-score)", "setting": "[11]", "result": -0.288}, {"measurement": "glycan array binding signal (z-score)", "setting": "[12]", "result": -0.294}, {"measurement": "glycan array binding signal (z-score)", "setting": "[13]", "result": -0.283}, {"measurement": "glycan array binding signal (z-score)", "setting": "[14]", "result": -0.282}, {"measurement": "glycan array binding signal (z-score)", "setting": "[15]", "result": -0.275}, {"measurement": "glycan array binding signal (z-score)", "setting": "[16]", "result": -0.3}, {"measurement": "glycan array binding signal (z-score)", "setting": "[17]", "result": -0.263}, {"measurement": "glycan array binding signal (z-score)", "setting": "Fuc(a1-2)Gal6S(b1-4)Glc", "result": -0.28}, {"measurement": "glycan array binding signal (z-score)", "setting": "[18]", "result": -0.275}, {"measurement": "glycan array binding signal (z-score)", "setting": "Fuc(a1-2)[Gal(a1-3)]Gal", "result": -0.28}, {"measurement": "glycan array binding signal (z-score)", "setting": "[19]", "result": -0.29}, {"measurement": "glycan array binding signal (z-score)", "setting": "[20]", "result": -0.298}, {"measurement": "glycan array binding signal (z-score)", "setting": "[21]", "result": -0.273}, {"measurement": "glycan array binding signal (z-score)", "setting": "[22]", "result": -0.269}, {"measurement": "glycan array binding signal (z-score)", "setting": "[23]", "result": -0.257}, {"measurement": "glycan array binding signal (z-score)", "setting": "[24]", "result": -0.282}, {"measurement": "glycan array binding signal (z-score)", "setting": "[25]", "result": -0.301}, {"measurement": "glycan array binding signal (z-score)", "setting": "[26]", "result": -0.289}, {"measurement": "glycan array binding signal (z-score)", "setting": "[27]", "result": -0.26}, {"measurement": "glycan array binding signal (z-score)", "setting": "[28]", "result": -0.299}]}]}
